Data on 120 sequences can be found in the supplement of paper PMC10126150.

In the series the test system is ATP. The series is described as follows: switch fluorescence ratio, 500 uM ATP over buffer (Cy3 cluster intensity, sum of 5 cycles each) (fold (ratio)); higher = stronger signal-on switching upon ATP binding; sequences stand for … in TCGTCGGCAGCGTCAGATGTGTATAAGAGACAGTTTTTTTTTTTTTTTTTTTTTTTTT…TC. Particulars: aptamer strand: ATP DNA aptamer (quencher-CACCTGGGGGAGTATTGCGGAGGAAGG + anchor), 100 nM annealed; ATP concentration: 500 uM; one replicate. In outline:
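Cy3-labelled switching-strand clusters on a modified Illumina MiSeq flow-cell were annealed to 100 nM quencher-labelled ATP aptamer and imaged first in selection buffer, then after 15 min with 500 uM ATP at 22 °C. NaOH stripping and re-annealing separated each of five buffer/ATP cycles, and clusters outside 100-1000 RFU were excluded. The fluorescence ratio sums target-cycle Cy3 intensity over buffer-cycle Cy3 intensity per cluster and averages it per switch-domain sequence.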

Sequences with one replicate were seen in a single cluster, so their values are uncertain.
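Note: ATP exposure 15 min at 22 °C before imaging.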

For ACTTCAAACT, the switch fluorescence ratio came to 1.1.

Take TTTCGAGACG: the switch fluorescence ratio came out at 0.869.

As to TGTGTAAGCC, the switch fluorescence ratio worked out at 1.06.

Take GGAACGCCAA: the switch fluorescence ratio is 1.1.

Consider GTAGGAGG, for which the switch fluorescence ratio amounted to 0.952.

Consider ATCACAGAAC, for which the switch fluorescence ratio came to 1.24.

As to CACATGTGAT, the switch fluorescence ratio came to 1.08.

As to TGTTCGCTAC, the switch fluorescence ratio came to 3.64.

For GTCTAAGCGC, the switch fluorescence ratio is 1.01.

Regarding GTTTCCCTGA, the switch fluorescence ratio worked out at 0.993.

With TTACTGTGGT, the switch fluorescence ratio stood at 0.956.

For the sequence GCCAATTAA, the switch fluorescence ratio was determined as 0.997.

In the case of AGGCGGAGAT, the switch fluorescence ratio was found to be 1.01.

As to AGTCCGTACA, the switch fluorescence ratio was found to be 1.02.

For TGCTTTTGCT, the switch fluorescence ratio worked out at 0.959.

In the case of CTGTGATTTT, the switch fluorescence ratio turned out to be 1.03.

Take TTTTCTGAAG: the switch fluorescence ratio amounted to 1.

On to TATCCTGGGG, for which the switch fluorescence ratio is 1.03.

For the sequence CTCCGTGCG, the switch fluorescence ratio worked out at 1.66.

As to ACACGTCTGC, the switch fluorescence ratio was found to be 1.15.

For CACAGTGCGG, the switch fluorescence ratio stood at 1.03.

CCCTTAAGGG: the switch fluorescence ratio is 1.01.

Take GATAGAGGAC: the switch fluorescence ratio turned out to be 0.897.

Consider ATTGATTT, for which the switch fluorescence ratio was 1.

For the sequence TGGATGTCTC, the switch fluorescence ratio came to 1.

Turning to TGAGGGAGGA, the switch fluorescence ratio came to 0.973.

Regarding TTCTGGCGAT, the switch fluorescence ratio worked out at 0.991.

GGTGCCCAGC: the switch fluorescence ratio is 0.96.

For CATATGGCGT, the switch fluorescence ratio was 0.983.

Turning to TGACGCCTTG, the switch fluorescence ratio is 0.989.

With GTCGTCGGGA, the switch fluorescence ratio turned out to be 1.03.

Regarding TCACTTCGTT, the switch fluorescence ratio came to 1.

On to TTTAGCTCGT, for which the switch fluorescence ratio was 0.978.

GTCCATATAG: the switch fluorescence ratio was 1.04.

As to GGGGTGCATT, the switch fluorescence ratio came out at 1.01.

As for GATCGTGAGC, the switch fluorescence ratio was determined as 1.05.

Take GCGTGGTAAC: the switch fluorescence ratio came out at 0.924.

Regarding ATGACTTCCA, the switch fluorescence ratio is 1.03.

On to CACAATGTCA, for which the switch fluorescence ratio came out at 1.03.

For the sequence TAACGCATTG, the switch fluorescence ratio was found to be 1.09.

Turning to ATGAATCGTG, the switch fluorescence ratio amounted to 1.

With TTGCAACAAA, the switch fluorescence ratio came to 1.04.

As for GGCACCTCAT, the switch fluorescence ratio was determined as 1.03.

As for GATAGCTTAT, the switch fluorescence ratio is 1.02.

As for ATTTGCAACA, the switch fluorescence ratio was found to be 0.994.

Regarding TATCCCATTG, the switch fluorescence ratio amounted to 0.986.

In the case of AATACGGATG, the switch fluorescence ratio was determined as 1.01.

As to GCATCGTGGT, the switch fluorescence ratio is 1.02.

Regarding TGTACGGACG, the switch fluorescence ratio is 1.06.

For the sequence TACAGGCGTC, the switch fluorescence ratio is 1.05.

As to GATGTTGGT, the switch fluorescence ratio worked out at 1.01.

Consider ACTTTTCACT, for which the switch fluorescence ratio is 1.16.

For the sequence ATGGTCTACG, the switch fluorescence ratio was found to be 1.02.

Turning to GATGACGATG, the switch fluorescence ratio was 1.07.

On to CGAATGCCAG, for which the switch fluorescence ratio amounted to 0.915.

As to CTCTCGCTTA, the switch fluorescence ratio was found to be 2.41.

As for CAGGTTTTAT, the switch fluorescence ratio is 1.01.

Take CTTTACAGTC: the switch fluorescence ratio worked out at 1.04.

Turning to TTGTTGTACA, the switch fluorescence ratio came to 0.989.

As for TTATAACTGC, the switch fluorescence ratio stood at 0.978.

With GCGCAGAGGA, the switch fluorescence ratio turned out to be 0.998.

As for ACGCCTGGCG, the switch fluorescence ratio worked out at 0.989.

CTGGTTGTCG: the switch fluorescence ratio was determined as 1.02.

As to ACAGGATGTA, the switch fluorescence ratio is 1.05.

On to AGGCGACAGG, for which the switch fluorescence ratio worked out at 1.

On to CGCTCGTTCC, for which the switch fluorescence ratio worked out at 1.25.

Take TGGTGGTTA: the switch fluorescence ratio came to 1.04.

In the case of GTCGTTTAG, the switch fluorescence ratio was 0.993.

In the case of CAAATAATCT, the switch fluorescence ratio is 0.985.

With CGAGTGACTT, the switch fluorescence ratio is 0.997.

For the sequence GACAATGTAT, the switch fluorescence ratio was determined as 1.02.

On to CATGACTCGA, for which the switch fluorescence ratio amounted to 1.01.

GCAAAGCCCT: the switch fluorescence ratio was 0.99.

In the case of CCTGTCTTAC, the switch fluorescence ratio turned out to be 1.57.

Take GGTCGATGCG: the switch fluorescence ratio is 1.04.

Take TAACGATTTT: the switch fluorescence ratio turned out to be 1.1.

Take AATCTGGATA: the switch fluorescence ratio was 0.996.

Consider CATCTTCGCC, for which the switch fluorescence ratio turned out to be 1.12.

Take GACGCTGACA: the switch fluorescence ratio was 1.27.

In the case of TCTTTATGGC, the switch fluorescence ratio came out at 0.985.

Turning to TAAAATGCG, the switch fluorescence ratio was determined as 1.03.

Regarding TAGTCTGATA, the switch fluorescence ratio was 0.96.

On to ACGATAATAG, for which the switch fluorescence ratio stood at 1.24.

As to TTGGCGTTTA, the switch fluorescence ratio is 1.01.

As to AAGCATCTGG, the switch fluorescence ratio stood at 0.97.

Turning to ATCTTAGAAT, the switch fluorescence ratio was found to be 0.951.

For TCGTTTCAAT, the switch fluorescence ratio amounted to 1.95.

Consider AAAGCATGCT, for which the switch fluorescence ratio is 0.971.

TGTGACGCCG: the switch fluorescence ratio was 0.985.

On to ACTGAGAG, for which the switch fluorescence ratio came out at 1.01.

For CCCTGGTCTG, the switch fluorescence ratio is 1.05.

Turning to CAGGTCGGGC, the switch fluorescence ratio was 1.01.

Turning to CATTAAGAAA, the switch fluorescence ratio was 1.02.

Consider CGGGAGACCA, for which the switch fluorescence ratio is 0.969.

On to GCTCTTGCCG, for which the switch fluorescence ratio was determined as 1.05.

On to TTAGGCTCAG, for which the switch fluorescence ratio was determined as 0.982.

On to ACAAATCAAA, for which the switch fluorescence ratio stood at 1.

TTCATTCGA: the switch fluorescence ratio was 1.02.

As to ACGTTTAGTT, the switch fluorescence ratio was determined as 0.988.

ACAACTAGAC: the switch fluorescence ratio was 1.04.

Turning to GGCCATAGTA, the switch fluorescence ratio was 1.

Take CCGTTTTGCT: the switch fluorescence ratio stood at 0.979.

Regarding CTCTAGGCTA, the switch fluorescence ratio was 1.07.

As for AGTAAAGAAA, the switch fluorescence ratio was determined as 1.01.

For CACTCTTGTT, the switch fluorescence ratio amounted to 0.989.

In the case of CTCCCGTTAT, the switch fluorescence ratio was 2.3.

CTCGTGTCGT: the switch fluorescence ratio was found to be 0.998.

With ACACTGAATA, the switch fluorescence ratio was 1.05.

Consider TTACTGCCGA, for which the switch fluorescence ratio came to 1.04.

ATAGGGGATG: the switch fluorescence ratio was found to be 1.

For GGTACCCAGT, the switch fluorescence ratio came out at 1.06.

Regarding AAGACGGCTT, the switch fluorescence ratio turned out to be 0.994.

With TCGTTCCGAC, the switch fluorescence ratio was 1.56.

For the sequence TGGCCCGTTC, the switch fluorescence ratio was 0.999.

As to ATCGGTCGCA, the switch fluorescence ratio amounted to 1.02.

In the case of ACTCTATGAG, the switch fluorescence ratio is 0.93.

As to AGCATAACAG, the switch fluorescence ratio came to 1.05.

Turning to TCGCTCACCG, the switch fluorescence ratio stood at 1.03.

As to CAGTAGTTTA, the switch fluorescence ratio was found to be 1.01.

For CGAGAAGCGG, the switch fluorescence ratio stood at 1.02.
